Test results as given in patent US20260209301A1, “Galanin-2 Receptor Agonists” (LIFEARC, priority 2022, published 2026).

Experiments:
Assay in all cases: cell-based or functional assay
[1] = target: T1, rat GalR2 (Rattus rattus) (UniProt O08726)
T1 sequence (looked up): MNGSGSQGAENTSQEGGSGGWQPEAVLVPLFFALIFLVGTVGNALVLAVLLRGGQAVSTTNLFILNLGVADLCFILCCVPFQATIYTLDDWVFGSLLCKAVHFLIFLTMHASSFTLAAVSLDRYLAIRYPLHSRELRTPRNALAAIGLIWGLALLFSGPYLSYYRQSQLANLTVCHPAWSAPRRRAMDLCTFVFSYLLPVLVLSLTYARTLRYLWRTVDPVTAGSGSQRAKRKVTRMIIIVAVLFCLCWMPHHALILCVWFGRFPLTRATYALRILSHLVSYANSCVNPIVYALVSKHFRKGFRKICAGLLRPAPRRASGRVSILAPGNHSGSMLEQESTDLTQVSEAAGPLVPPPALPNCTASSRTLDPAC

[2] = target: cynomolgus GalR2 (Macaca fascicularis)
human GalR1 (human) = human GalR1 (human) (UniProt P47211)
[3] = target: T2, mouse GalR2 (Mus musculus) (UniProt O88854)
T2 sequence (looked up): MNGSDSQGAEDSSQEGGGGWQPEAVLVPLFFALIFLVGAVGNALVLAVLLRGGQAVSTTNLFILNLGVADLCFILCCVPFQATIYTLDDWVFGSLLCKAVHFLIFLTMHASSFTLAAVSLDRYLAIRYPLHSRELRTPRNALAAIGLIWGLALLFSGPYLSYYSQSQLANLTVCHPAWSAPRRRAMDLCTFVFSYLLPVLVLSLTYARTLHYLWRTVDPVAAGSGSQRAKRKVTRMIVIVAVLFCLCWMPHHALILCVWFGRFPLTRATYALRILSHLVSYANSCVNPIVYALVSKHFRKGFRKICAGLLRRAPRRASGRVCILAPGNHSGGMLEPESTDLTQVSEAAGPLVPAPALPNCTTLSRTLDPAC

Chain of UniProt P47211 (P47211 whole entry): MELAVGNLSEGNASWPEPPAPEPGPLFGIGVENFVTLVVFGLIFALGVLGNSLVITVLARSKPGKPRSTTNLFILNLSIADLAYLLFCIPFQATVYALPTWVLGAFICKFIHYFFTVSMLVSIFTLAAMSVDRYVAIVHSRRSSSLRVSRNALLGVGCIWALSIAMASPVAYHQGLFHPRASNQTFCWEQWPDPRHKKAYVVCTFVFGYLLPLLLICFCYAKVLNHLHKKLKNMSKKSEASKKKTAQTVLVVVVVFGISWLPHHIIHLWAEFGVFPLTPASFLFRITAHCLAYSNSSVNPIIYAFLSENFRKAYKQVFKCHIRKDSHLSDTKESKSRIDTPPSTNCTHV

B1: Gal2-12FC (Fc fusion)
chain: WTLNSAGYLLGAEAAAKEAAAKAL[human IgG1 Fc with C220S (EU numbers) not spelt out]
- calcium assay activity (quantity not given) [1]: 6.6
- calcium assay activity (quantity not given) [2]: 7.7
- cAMP assay activity (quantity not given) (human GalR1 (human)): 5.4
- calcium assay activity (quantity not given) [3]: 6.8

B2: Gal2-30FC (Fc fusion)
chain: WTLNSAGYLLGPHAVGNHRSFSDKNGLTSAEAAAKEAAAKAL[human IgG1 Fc with C220S (EU numbers) not spelt out]
- calcium assay activity (quantity not given) [2]: 8.4
- Beta Arrestin IA (%) (human GalR1 (human)): 42.8%
- cAMP IA (%) (human GalR1 (human)): 80.2%
- cAMP assay activity (quantity not given) (human GalR1 (human)): 7
- cAMP pEC50 (human GalR1 (human)): 7 pEC50
- calcium assay activity (quantity not given) [3]: 7
